The other results are listed elsewhere or left out. At the low end of the ranking the order means little.
Target: T1, GST-Rok (full length) (UniProt O34857)
T1 sequence: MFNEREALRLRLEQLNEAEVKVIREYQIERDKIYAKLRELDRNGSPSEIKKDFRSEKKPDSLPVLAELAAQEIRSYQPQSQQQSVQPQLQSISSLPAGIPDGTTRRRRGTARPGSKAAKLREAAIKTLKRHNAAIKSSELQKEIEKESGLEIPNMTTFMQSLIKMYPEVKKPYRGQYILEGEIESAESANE
Assay: protein binding microarray;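 further: rank score from −0.5 (least bound) to 0.5 (best bound)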
Settings: Rok is a gene silencer of Bacillus subtilis; high values mean tight binding; most listed sequences are background and not binding sites; double strand, one strand shown

Row | Sequence | binding signal
1 | CCCGTTTA | -0.207 E-score
2 | GCGACCAC | -0.174 E-score
3 | ACTCCCCG | -0.189 E-score
4 | ACTTATCG | 0.173 E-score
5 | CTACAAAG | 0.145 E-score
6 | GGGCCCAC | -0.401 E-score
7 | TAGTAGAA | 0.439 E-score
8 | ACATCCTG | -0.081 E-score
9 | AGCAGTGG | -0.251 E-score
10 | TATTGACA | 0.0754 E-score
11 | ACCATTGA | 0.0998 E-score
12 | AGGGAAAT | 0.0621 E-score
13 | CTTCCTGC | -0.0935 E-score
14 | GACAAGCA | -0.182 E-score
15 | CTATGTGC | 0.0257 E-score
16 | CTCTTCCA | -0.235 E-score
17 | ATGTCGTC | -0.209 E-score
18 | GATATGGA | 0.139 E-score
19 | ACACACGC | -0.15 E-score
20 | TCCGTAAA | -0.0155 E-score
21 | CTCGGATA | -0.00168 E-score
22 | CTTACTTA | 0.214 E-score

Row | Sequence | binding signal
23 | TGCGATAA | 0.0492 E-score
24 | AACATGCA | 0.201 E-score
25 | ATATTAAG | 0.275 E-score
26 | AAATCAAT | 0.0975 E-score
27 | CAACGACA | 0.0825 E-score
28 | CACTCAAA | 0.0709 E-score
29 | CTATCTCA | 0.258 E-score
30 | ACGTTACA | 0.205 E-score
31 | CTTTATTA | 0.158 E-score
32 | CTACCAAA | 0.26 E-score
33 | CACGGTAA | 0.155 E-score
34 | GCGTACCA | -0.205 E-score
35 | AGATGAAA | -0.135 E-score
36 | TATTATGA | 0.238 E-score
37 | CGTAAGGA | -0.177 E-score
38 | ATCTCGAA | 0.106 E-score
39 | CAAGCTCA | -0.0535 E-score
40 | CATAGTGG | 0.0697 E-score
41 | CGTTTAAG | -0.0976 E-score
42 | TATCCGGA | 0.107 E-score
43 | ATAATTGC | 0.284 E-score
44 | CTGGATTA | 0.107 E-score

Row | Sequence | binding signal
45 | AGCGCTAG | 0.103 E-score
46 | GCCCCTAC | -0.167 E-score
47 | CGGGCGTC | -0.325 E-score
48 | CATTGGCA | -0.225 E-score
49 | GATGAAGA | -0.251 E-score
50 | AGTAAGTG | 0.165 E-score
51 | CTACCTCC | 0.0507 E-score
52 | AGGAAATC | -0.0356 E-score
53 | AAGGGTGT | -0.17 E-score
54 | AGCACGAT | -0.0157 E-score
55 | GCGCCCAC | -0.3 E-score
56 | CACGCTCC | -0.215 E-score
57 | CTAGGGAC | -0.221 E-score
58 | ATGCCAAC | -0.0803 E-score
59 | GACGAGTC | -0.104 E-score
60 | ACTGGTCA | -0.0361 E-score
61 | CCCACGTC | -0.3 E-score
62 | CTCAGCAC | -0.145 E-score
63 | GGTTCCTA | -0.019 E-score
64 | CCCCATAC | -0.182 E-score
65 | CAATAGGC | -0.0881 E-score
66 | CCACCAAA | 0.00945 E-score

Row | Sequence | binding signal
67 | AGGTAGAA | 0.419 E-score
68 | ACATACAC | 0.234 E-score
69 | CCAGATAC | 0.043 E-score
70 | AGTGCACC | -0.246 E-score
71 | GGATTCAC | -0.0831 E-score
72 | AGTAGACC | -0.0035 E-score
73 | AGGGCCCG | -0.284 E-score
74 | AATAATCC | 0.00773 E-score
75 | AACTCAGC | -0.0423 E-score
76 | AGCCAACA | -0.107 E-score
77 | AGAATTCC | 0.221 E-score
78 | CACGGATA | 0.0453 E-score
79 | GCACCGAC | -0.244 E-score
80 | AGAGTTAA | 0.0496 E-score
81 | AAAGTGCG | -0.151 E-score
82 | ATGGCAAT | 0.0495 E-score
83 | AACTAACA | 0.113 E-score
84 | ATACAACC | 0.252 E-score
85 | AGAAGGCG | -0.203 E-score
86 | AAAAATTC | -0.0372 E-score

Reference: PMC6212790
